# The other results are listed elsewhere or left out. Construct or isoform of the protein are uncertain.
# Target: GST-SBP-ILF3 (Homo sapiens) (UniProt Q12906)
# Assay: targeted RNA Bind-n-Seq
# Conditions: RBNS binding buffer: 25 mM Tris pH 7.5, 150 mM KCl, 3 mM MgCl2, 0.1% Tween, 0.5 mg/mL BSA, 1 mM DTT; 27 nM protein, 750 pM RNA pool; temperature not stated; high values mean tight binding; sequences stand for … in GGGUAAAAGCGAGGUGAA…CGGGACAAGUAUUAUGGG
row,Sequence,binding signal (log2 fold change)
1,GUGUGGUGUGUUGGAGUCUAACACAUCGCA [gtspaired],-0.771
2,UUUUUUUUUUGAGAGGGCAUCCCUCUCCUA [tttttgagapaired],0.605
3,UUUUUUUUUUGAGAACGUGGCGUUCUCCAG [tttttgagapaired],0.522
4,UUUUUUUUUUGAGAGCGUGACGUUCUCCUA [tttttgagapaired],0.453
5,UUUUUUUUUUGAGACCGAGACGGUUUCCAG [tttttgagapaired],0.527
6,UUUUUUUUUUGAGAGGGCGACCCUCUUCUG [tttttgagapaired],0.572
7,UUCUCUUCUCCUCCGCUGGAGGGGGAGAGA [ctspaired],-0.54
8,GUGUGUGGUGUUGGAACCUAACACCGCAUA [gtspaired],-0.386
9,UUUUUUUUUUGAGAUGGUUGCCAUCUCCUG [tttttgagapaired],0.469
10,GUGUGUUGUGUUGGCGUCUAACACAACGCG [gtspaired],-0.469
11,GGUUGGUGUGUUGGAGCCUAACACACUAAC [gtspaired],-0.122
12,UUUUUUUUUUGAGAGGGAACCCCUCUCCUG [tttttgagapaired],-0.0733
13,UUUUUUUUUUGAGACUGAAACAGUCUUCUA [tttttgagapaired],-0.491
14,GGUUGGUGUGUUGGCCUCUAACACACCGAC [gtspaired],-0.49
15,GUGUGUUGUGUUGGUACCUAACACAACGCA [gtspaired],-0.39
16,UUUUUUUUUUGAGAUCGUCACGAUCUCCGG [tttttgagapaired],0.281
17,GGUUGUGGUGUUGGCCUCUAACACCACGAC [gtspaired],-0.749
18,UUUUUUUUUUGAGACUGACACAGUCUCCUA [tttttgagapaired],0.234
19,UUUUUUUUUUGAGACCGUAUCGGUCUCCUA [tttttgagapaired],0.634
20,UUCUCUUCUCCUCCAGGGGAGGGGAAGGGA [ctspaired],-0.284
21,GUUGUGUGUGUUGGCCCCUAACACACGCAA [gtspaired],-0.581
22,UUUUUUUUUUGAGAUGGCUGCCAUCUCCGG [tttttgagapaired],0.62
23,UUUUUUUUUUGAGAUGGGCACUAUCUCCAG [tttttgagapaired],0.545
24,UUUUUUUUUUGAGAUGGAAUCCAUCUCCUA [tttttgagapaired],-0.337
25,UUUUUUUUUUGAGAUGGGUACUAUCUUCUA [tttttgagapaired],0.186
26,UUUUUUUUUUGAGAUGGAUUCCAUCUUCUA [tttttgagapaired],-0.226

row,Sequence,binding signal (log2 fold change)
1,GUUGUGUGUGUUGGCAUCUAACACACACAG [gtspaired],-0.38
2,UUUUUUUUUUGAGACGGGCCCCGUCUCCAG [tttttgagapaired],0.67
3,GUGGUGUGUGUUGGUCCCUAACACACACCG [gtspaired],-0.21
4,UUUUUUUUUUGAGACUGCUUCAGUCUCCAG [tttttgagapaired],0.345
5,UUUUUUUUUUGAGACGGAAACCGUCUCCAG [tttttgagapaired],0.212
6,UUUUUUUUUUGAGACUGAGCCAGUCUCCUG [tttttgagapaired],0.316
7,UUUUUUUUUUGAGACGGAAUCCGUCUCCAG [tttttgagapaired],0.13
8,UUUUUUUUUUGAGACGGGACCCGUCUCCUA [tttttgagapaired],0.542
9,GUGUUGUGUGUUGGCUCCUAACACACAGCA [gtspaired],-0.26
10,UUUUUUUUUUGAGACUGAUACAGUCUCCGG [tttttgagapaired],0.322
11,UUUUUUUUUUGAGACUGGCGCAGUCUCCGG [tttttgagapaired],0.585
12,UUCUCUUCUCCUCCGCGGGAGGGGGAGAGA [ctspaired],-0.653
13,UUUUUUUUUUGAGACGGGAUCUGUCUUCUG [tttttgagapaired],0.575
14,GUGUGUUGUGUUGGAACCUAACACAGCGCG [gtspaired],-0.805
15,UUUUUUUUUUGAGACUGAAUCAGUUUCCUA [tttttgagapaired],0.265
16,UUUUUUUUUUGAGAUGGCAGCCAUCUCCUA [tttttgagapaired],0.472
17,GUGUGUUGUGUUGGCGCCUAACACAGCGCG [gtspaired],-0.391
18,UUUUUUUUUUGAGAGGGGCUCCCUUUCCGG [tttttgagapaired],0.584
19,UUUUUUUUUUGAGACUGAGGCAGUCUCCUA [tttttgagapaired],0.333
20,UUUUUUUUUUGAGAUCGGAACGAUUUCCUA [tttttgagapaired],0.00384
21,UUUUUUUUUUGAGAUGGAGGCCAUCUCCAG [tttttgagapaired],0.444
22,GGUUGGUGUGUUGGCGUCUAACACACCAGC [gtspaired],-0.734
23,UUUUUUUUUUGAGAGCGGGCCGUUCUCCGG [tttttgagapaired],0.618
24,UUUUUUUUUUGAGAGGGGUACCCUCUUCUA [tttttgagapaired],0.599
25,GGUGUUGGUGUUGGAUCCUAACACCGAUAC [gtspaired],-0.336
26,UUUUUUUUUUGAGACUGGGACAGUUUCCUG [tttttgagapaired],0.925

row,Sequence,binding signal (log2 fold change)
1,UUUUUUUUUUGAGAACGAUUCGUUCUCCAG [tttttgagapaired],-0.34
2,UUUUUUUUUUGAGACUGUGUCAGUCUUCUA [tttttgagapaired],0.572
3,GUGUUGUGUGUUGGUUCCUAACACACAGCG [gtspaired],-0.559
4,GGUUGUGGUGUUGGUUCCUAACACCGCGAC [gtspaired],-0.709
5,GUGUGUUGUGUUGGAACCUAACACAGCGCA [gtspaired],-0.546
6,UUUUUUUUUUGAGAUGGGAGCCAUCUCCAG [tttttgagapaired],0.32
7,UUUUUUUUUUGAGAGGGGAUCCCUUUCCAG [tttttgagapaired],0.295
8,UUUUUUUUUUGAGACCGGAUCGGUCUCCGG [tttttgagapaired],0.307
9,GGUGGUUGUGUUGGUGCCUAACACAAUCGC [gtspaired],-0.362
10,UUUUUUUUUUGAGACCGCAUCGGUCUUCUG [tttttgagapaired],0.485
11,UUUUUUUUUUGAGACUGGGACAGUUUCCUA [tttttgagapaired],0.625
12,UUUUUUUUUUGAGAACGACGCGUUCUCCUA [tttttgagapaired],0.139
13,UUUUUUUUUUGAGACGGAACCCGUCUCCUA [tttttgagapaired],0.368
14,GUGUGGUGUGUUGGUCCCUAACACAUCACA [gtspaired],-0.732
15,UUUUUUUUUUGAGAGGGAUGCCCUUUCCAG [tttttgagapaired],0.361
16,GGUUGGUGUGUUGGUCCCUAACACAUCGAC [gtspaired],-0.581
17,UUCCUCUCUCCUCCGGGGGAGGGGGGAGGA [ctspaired],-0.132
18,UUUUUUUUUUGAGAUCGGAACGAUCUUCUG [tttttgagapaired],0.406
19,UUUUUUUUUUGAGACCGAGGCGGUCUCCUA [tttttgagapaired],0.435
20,UUUUUUUUUUGAGAGGGCAGCCCUCUCCAG [tttttgagapaired],1.09
21,UUUUUUUUUUGAGAACGUAUCGUUCUCCGG [tttttgagapaired],0.177
22,UUUUUUUUUUGAGAUGGAUUCCGUCUCCUA [tttttgagapaired],0.0429
23,GGUUGUUGUGUUGGAGCCUAACACAACGAC [gtspaired],-0.65
24,GUGUGGUGUGUUGGUGUCUAACACACCGCG [gtspaired],-0.274
25,UUUUUUUUUUGAGAGGGGGACCCUUUCCGG [tttttgagapaired],0.506
26,UUUUUUUUUUGAGACGGUGACCGUUUCCGG [tttttgagapaired],0.656

row,Sequence,binding signal (log2 fold change)
1,UUUUUUUUUUGAGACGGCUACCGUCUCCUA [tttttgagapaired],0.496
2,UUUUUUUUUUGAGACGGCUACCGUCUUCUA [tttttgagapaired],0.448
3,GUUGGUGGUGUUGGCCUCUAACACCAUCAA [gtspaired],-0.671
4,UUUUUUUUUUGAGAUGGGGGCCAUCUCCAG [tttttgagapaired],0.725
5,UUUUUUUUUUGAGACUGUUGCAGUUUCCGG [tttttgagapaired],0.606
6,UUUUUUUUUUGAGAUCGGACCGAUCUCCAG [tttttgagapaired],0.483
7,UUUUUUUUUUGAGAUGGAAACCAUCUUCUG [tttttgagapaired],0.0544
8,UUUUUUUUUUGAGACUGAAACAGUCUCCAG [tttttgagapaired],0.0395
9,UUUUUUUUUUGAGAGCGGAACGCUCUCCAG [tttttgagapaired],0.429
10,UUUUUUUUUUGAGACCGUCACGGUUUCCUA [tttttgagapaired],0.448
11,GGUGGUGGUGUUGGCAUCUAACACCAUCGC [gtspaired],-0.348
12,UUUUUUUUUUGAGACUGAGACAGUUUCCAG [tttttgagapaired],0.42
13,UUUUUUUUUUGAGAUGGCGGCCAUCUCCUA [tttttgagapaired],0.536
14,UUUUUUUUUUGAGACGGAAUCCGUCUUCUA [tttttgagapaired],0.128
15,UUUUUUUUUUGAGAUGGAGGCCAUUUCCAG [tttttgagapaired],0.556
16,GUGUGUUGUGUUGGCACCUAACACAACGCA [gtspaired],-0.314
17,UUUUUUUUUUGAGAUCGGACCGAUCUCCUG [tttttgagapaired],0.601
18,UUUUUUUUUUGAGAGUGUGGCAUUCUCCAG [tttttgagapaired],0.473
19,UUUUUUUUUUGAGACGGCGUCCGUUUCCAG [tttttgagapaired],0.922
20,GUGGUGUGUGUUGGUGCCUAACACAUACCG [gtspaired],-0.352
21,UUUUUUUUUUGAGACUGUUUCAGUCUCCAG [tttttgagapaired],0.166
22,GUGUGUGGUGUUGGAGCCUAACACCGCGCG [gtspaired],-0.573
23,GGUGGUGGUGUUGGAACCUAACACCGCUAC [gtspaired],-0.779
24,UUUUUUUUUUGAGAUGGUGACCAUCUCCUA [tttttgagapaired],0.279

# From PMC5892938
